# Data published in ChEMBL document CHEMBL5308541, “MAIP: An Open-Source Tool to Enrich High-Throughput Screening Output and Identify Novel, Druglike Molecules with Antimalarial Activity” (ACS Med Chem Lett, 2023).
# Out of some 4,800 compounds screened, about 410 (8.5%) showed an effect of 50% or more. The list shows a part of the results.
# Tested on: Plasmodium falciparum
# Assay: Confirmatory screen in NF54 pLDH assay, in single point, at 2uM, 72h
# Assay type: functional, Erythrocyte
# Conditions: timepoint 72 hour
row,SMILES,% Inhibition
1,CN(C)Cc1cccc(CCNCc2csc(-c3ccc(C(F)(F)F)cc3)n2)c1,88%
2,CCCC(=O)NC1COCC1Cc1ccncc1 (centres undefined),86%
3,O=C(NCCNc1ccnc2ccncc12)c1ccc(C(F)(F)F)cc1,43%
4,CN1CCN(CCOc2ccccc2CN(C)Cc2cc3cc(F)ccc3[nH]2)CC1,104%
5,N#Cc1cccc(Cl)c1N1CCC(N2CCCC2)CC1,38%
6,CCOc1ccc2nc(N3CCC(N4CCC([C@H](O)c5cccnc5)CC4)CC3)nc(C)c2c1,8%
7,CCN1C[C@H](Nc2nc(C)nc3sccc23)[C@@H](OC)C1,101%
8,O[C@H]1CCN(Cc2ccccc2CNc2cccc(-n3ccnc3)n2)C1,101%
9,Cc1cnccc1NCCNCc1cnc(N2CCCCC2)nc1,62%
10,OCCCNc1nn2cc(-c3ccc(F)cc3)nc2s1,-2%
11,CN1CCN(CCc2ccc(N[C@H]3CCCN(Cc4ccccc4)C3(C)C)cc2)CC1,16%
12,Cc1cc(N2CCC(NCCCN3CCCc4ccccc43)CC2)nc(N)n1,88%
13,O=C(n1nnc2cc(Cl)c(Cl)cc21)C(F)(F)F,39%
14,C[C@H](Nc1nc(N)c2ccccc2n1)c1cccc(-n2cncn2)c1,29%
15,Clc1cccc(N2CC[C@H](CNC3CCN(Cc4ccco4)CC3)C2)c1,97%
16,COC(CN(Cc1nc(N)nc(Nc2ccc(C)cc2)n1)Cc1nc(N)nc(Nc2ccc(C)cc2)n1)OC,94%
17,CN1CCN(CCCCNC2CC3CCC(C2)N3Cc2ccccc2)CC1 (centres undefined),41%
18,c1ccc2c(Nc3ccc4[nH]cnc4c3)c3ccccc3nc2c1,102%
19,CC(C)c1ccc(-c2nc(CN3CCCCC3)cc(CN3CCCCC3)c2O)cc1,92%
20,CC1CN(c2ccccc2NC(=O)c2ccc(-c3cnco3)cc2)CC(C)O1 (centres undefined),-13%
21,CCN(Cc1cnn(-c2cccc(Cl)c2)c1)CC1CCN(C2CCN(C)CC2)CC1,92%
22,COCCCN1CCC(Nc2ncnc3cc(C)c(C)cc23)CC1,94%
23,CN1CCC[C@H](CN2CCN(Cc3cc4n(n3)CCCNC4)CC2)C1,-7%
24,COc1cc2nc(-c3ccc(F)c4cccnc34)nc(N)c2cc1OC,102%
25,COc1ccc2nc(C)cc(NCc3cccc(NC(=O)c4ccco4)c3)c2c1,105%
26,CCN1CCN(C[C@@H](C)CNCc2cc(-c3ccccc3)ccc2OC)CC1,-4%
27,CCCc1cccc(CNC2CCN(C3CCN(C)CC3)CC2)c1,71%
28,COCCN1CC[C@H](CN(C)c2ccnc3cc(Cl)ccc23)C1,102%
29,Cc1cc(C)c(-c2csc(Nc3ncnc4[nH]ncc34)n2)cc1C,-5%
